# Measurements published in PubChem BioAssay AID686978 (National Center for Advancing Translational Sciences (NCATS), 2013).
# About 64,000 (15%) of roughly 420,000 compounds were called active. Inconclusive results, whose numbers are uncertain, are shown with a selection of clear calls. The call rests on the fitted dose curve; in most records, active means well fitted inhibition curve with a large enough effect; inconclusive means small, poorly fitted or top-dose-only effect; inactive means flat fitted curve, though single readings scatter. Potencies of inconclusive entries are left out as doubtful fits.
# Experiment: qHTS for Inhibitors of human tyrosyl-DNA phosphodiesterase 1 (TDP1): qHTS in cells in absence of CPT; further: nearly all actives have a fitted effect of over 55% in size
# Details: DT40 Tdp1-/- hTDP1 cells, no CPT, ATP luminescence, 48 h; series mostly up to 46.2 µM
# In short: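 Growth kinetics read by CellTiter-Glo luminescence after ≥48 hr at 37 °C. Cells: DT40 Tdp1-/- stably carrying human TDP1, 400 per well, compound exposure in the absence of CPT (DMSO vehicle).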
# Potency means the concentration at half of the fitted maximal effect; tags describe the fitted curve by direction and shape.
row,SMILES,Potency
1,CCc1ccccc1N1CC(C(=O)N2Cc3ccccc3CC2C(N)=O)CC1=O (stereo unspecified),inactive
2,Cc1cccc(C(=O)Nc2nc(-c3nnn(-c4cc(C)ccc4C)c3C)ns2)c1,"inconclusive [inhibitor, single point]"
3,CN(CC(=O)Nc1ccc(C#N)cc1)CC(=O)Nc1ccc(N2CCOCC2)cc1,inactive
4,O=[N+]([O-])c1ccc(NCCCN2CCOCC2)c(Cl)c1,"inconclusive [inhibitor, single point]"
5,Cc1cscc(C)c1=S,inactive
6,Cc1cc(C)c2sc(NC(=O)c3ccc(N4C(=O)CCC4=O)cc3)nc2c1,"inconclusive [inhibitor, single point]"
7,CN1CCN(S(=O)(=O)c2ccccc2)C(c2ccccc2)C1 (stereo unspecified),inactive
8,CCCCNC(=S)NNC(=O)c1csc(C(C)C)c1,"inconclusive [inhibitor, single point]"
9,CC(=O)OC[C@@H]1CN(Cc2cccc(C(F)(F)F)c2)C[C@H](n2cnc3c(NCc4ccco4)ncnc32)O1,"inconclusive [inhibitor, single point]"
10,CCc1ccc(CN(C)C(=O)C2CCC(=O)N(CC3CCCCC3)C2)cc1 (stereo unspecified),"inconclusive [inhibitor, single point]"
11,CC(NC(=O)CN(C)S(=O)(=O)c1cccc2nsnc12)c1ccccc1 (stereo unspecified),inactive
12,O=C(c1ccc(Oc2ccc(Cl)cc2)c([N+](=O)[O-])c1)N1CCCC1,active: 14.6 µM
13,COc1ccc(Nc2ccnc(Nc3ccc(OC)cc3)n2)cc1,active: 2.59 µM
14,S=c1[nH]nc(-c2ccccc2)n1/N=C/C=C/c1ccco1,"inconclusive [inhibitor, single point]"
15,CC(=O)Nc1ccc(NC(=O)C2CCN(S(C)(=O)=O)CC2)cc1,inactive
16,Cc1ccc(S(=O)(=O)NCc2ccccc2)cc1C(=O)NC1CCC(C)CC1 (stereo unspecified),"inconclusive [inhibitor, partial curve]"
17,CCC(=O)OC1(C)C(=O)C2=COC(c3ccc(OC)cc3)=CC2=C(Br)C1=O (stereo unspecified),inactive
18,COc1ccc(OC)c(/C=N/NC(=O)c2cc[n+](Cc3ccccc3)cc2)c1,"inconclusive [inhibitor, single point]"
19,COc1ccc(N2CCN(C(=O)c3csc4ccccc34)CC2)cc1,"inconclusive [inhibitor, full curve, poor fit]"
20,CC(=O)c1ccc(S(=O)(=O)NCCOc2ccccc2)cc1,"inconclusive [inhibitor, single point]"
21,Cn1c(=O)c2c(SCC(=O)Nc3ccc(F)cc3F)nc(C3CCCC3)nc2n(C)c1=O,"inconclusive [inhibitor, full curve]"
